Source: PubChem BioAssay AID588579 (National Center for Advancing Translational Sciences (NCATS), 2011)
About 2,200 (0.55%) of roughly 400,000 compounds were called active. Inconclusive results, whose numbers are uncertain, are shown with a selection of clear calls. Calls come from the whole dose curve; as a rule, active = well fitted inhibition curve with a large enough effect; inconclusive = small, poorly fitted or top-dose-only effect, or another doubt; inactive = no such curve, though single readings can be large or run the other way. A potency beside an inconclusive call is a rough fit, not a confirmed value.
% is set by controls: 0 for no effect and ±100 for the full control effect; potency is the fitted concentration of half-maximal effect; tags give direction and shape of the fitted curve.

What follows are compounds tested against DNA polymerase kappa (Homo sapiens) (UniProt Q9UBT6) (assay: qHTS for Inhibitors of Polymerase Kappa). Conditions: purified Pol kappa, fluorescent DNA synthesis assay, 10 min; series mostly up to 107 µM.
UniProt Q9UBT6, sequence (Q9UBT6 whole entry, looked up): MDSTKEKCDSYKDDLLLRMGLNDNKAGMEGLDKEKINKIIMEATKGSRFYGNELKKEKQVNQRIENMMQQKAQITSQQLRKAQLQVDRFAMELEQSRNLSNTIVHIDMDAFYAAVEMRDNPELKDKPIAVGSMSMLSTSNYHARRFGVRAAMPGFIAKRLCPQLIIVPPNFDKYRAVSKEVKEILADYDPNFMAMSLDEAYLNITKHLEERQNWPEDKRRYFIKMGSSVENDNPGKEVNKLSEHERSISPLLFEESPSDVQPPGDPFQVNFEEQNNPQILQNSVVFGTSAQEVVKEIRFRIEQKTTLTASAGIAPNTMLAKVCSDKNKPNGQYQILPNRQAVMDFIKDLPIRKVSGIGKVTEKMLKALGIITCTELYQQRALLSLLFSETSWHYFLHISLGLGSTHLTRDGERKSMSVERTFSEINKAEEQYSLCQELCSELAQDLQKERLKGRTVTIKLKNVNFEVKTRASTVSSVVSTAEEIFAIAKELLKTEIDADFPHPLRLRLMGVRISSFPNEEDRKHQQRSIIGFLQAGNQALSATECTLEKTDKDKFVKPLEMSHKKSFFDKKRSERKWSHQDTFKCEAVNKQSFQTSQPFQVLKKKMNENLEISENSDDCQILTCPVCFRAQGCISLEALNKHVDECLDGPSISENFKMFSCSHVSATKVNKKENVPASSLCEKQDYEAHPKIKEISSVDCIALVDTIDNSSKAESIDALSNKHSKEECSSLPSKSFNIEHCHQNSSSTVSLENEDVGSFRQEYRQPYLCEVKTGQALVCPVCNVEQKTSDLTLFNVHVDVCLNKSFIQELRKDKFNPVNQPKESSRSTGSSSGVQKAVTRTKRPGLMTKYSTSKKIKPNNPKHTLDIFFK
In short: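 Here, compound and 10 nM enzyme are combined for 15 min at room temperature; adding 50 nM substrate (final) starts DNA synthesis, tracked by fluorescence at 0 and 10 min against buffer-only wells.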
For `CC1CC1C(=O)Nc1nc(-c2cccs2)c(-c2cccs2)s1` (configuration not stated), the Potency was inconclusive: 79.4 µM [inhibitor, partial curve, poor fit]. In the case of `CCOC(=O)NC1(Nc2cccc(Cl)c2)Oc2ccccc2O1`, the Potency is reported as inconclusive: 89.1 µM [inhibitor, single point]. For `COc1ccc(C2=NN(c3nc(-c4ccccc4)c(CC(=O)O)s3)C(c3ccco3)C2)cc1` (configuration not stated), the Potency was inconclusive: 89.1 µM [inhibitor, single point]. For `Cc1ccc(CNC(=O)C(=O)NCC2OCCN2S(=O)(=O)c2ccc(Br)cc2)cc1` (configuration not stated), the Potency was inconclusive: 89.1 µM [inhibitor, single point]. With `CCn1c(CSc2nc3ccccc3s2)nnc1SCC(=O)c1ccc(O)c(O)c1` the Potency was inconclusive: 79.4 µM [inhibitor, partial curve, poor fit]. In the case of `O=C1CC(c2ccco2)CC(O)=C1C=Nc1ccc(Br)cc1` (configuration not stated), the Potency is reported as inconclusive: 79.4 µM [inhibitor, partial curve, poor fit]. With `COc1cc(/C=C2\C(=O)NN(c3ccccc3)C2=O)cc([N+](=O)[O-])c1O` the Potency was inconclusive: 56.2 µM [inhibitor, partial curve, poor fit]. For `COC(=O)c1ccccc1NC(=O)Cn1ncc2c(C)n(Cc3ccc(F)cc3)c(C)c2c1=O`, the Potency was inconclusive: 89.1 µM [inhibitor, single point]. In the case of `Cc1cc(=O)[nH]c(N/N=C/c2c(O)n(-c3ccccc3)c(=O)c3ccccc23)n1`, the Potency is reported as “inactive”. With `CCN1CCN(c2nc(Nc3ccc(NC(C)=O)cc3)nc(Nc3ccc(NC(C)=O)cc3)n2)CC1` the Potency was inconclusive: 56.2 µM [inhibitor, partial curve, poor fit]. With `CN(Cc1ccco1)c1ccnc(-c2cccc(C#N)c2)n1` the Potency was inconclusive: 25.1 µM [inhibitor, partial curve, poor fit]. With `O=C1c2c(O)cc(O)cc2O[C@H](c2ccc(O)c(O)c2)C1O` (some centres not stated) the Potency was active: 1.34 µM. With `Cc1ccnc(NC(c2cc(C)ccc2O)c2ccc3cccnc3c2O)c1` (configuration not stated) the Potency was inconclusive: 89.1 µM [inhibitor, partial curve]. `CC1(NC(=O)/C=C/c2nc3ccccc3s2)CCS(=O)(=O)C1` (configuration not stated) was tested, and the Potency was active: 79.4 µM. With `O=C(O)/C(=N/NC(=O)c1ccc(Cl)cc1)c1ccccc1` the Potency was “inactive”. With `COc1ccc(C2CC(c3ccc(Br)cc3)=NN2C(=O)CCC(=O)O)cc1OC` (configuration not stated) the Potency was inconclusive: 89.1 µM [inhibitor, single point]. With `CC1(C)CC(=O)C(N=Nc2cc(C(F)(F)F)ccc2Cl)=C(O)C1` the Potency was “inactive”. For `O=C(O)Cc1c[nH]c2cccc(O)c12`, the Potency was active: 22.4 µM. With `CC(=O)N(\C=C/C=C/C=C1\Sc2ccccc2C1=O)c1ccccc1` the Potency was active: 25.1 µM. With `c1ccc2c(OCCCCN3CCOCC3)cccc2c1` the Potency was inconclusive: 89.1 µM [inhibitor, single point]. With `CC(CCc1ccccc1)NC(=O)C1CCCN(c2nnc(-n3cccc3)s2)C1` (configuration not stated) the Potency was inconclusive: 89.1 µM [inhibitor, partial curve, poor fit]. `COc1ccc(-n2c(SCC(=O)Nc3cccc4ccccc34)nc(O)cc2=O)cc1` was tested, and the Potency was inconclusive: 89.1 µM [inhibitor, single point]. For `COc1cc(-c2onc3ccc(Br)cc23)cc(OC)c1OC`, the Potency was inconclusive: 89.1 µM [inhibitor, partial curve, poor fit]. `Oc1ccc(C2=Nn3c(nnc3-c3ccco3)SC2)cc1O` was tested, and the Potency was active: 20 µM. With `N#C/C(=C\c1ccc(O)c(O)c1)C(=O)NCCc1ccccc1` the Potency was inconclusive: 37.7 µM [inhibitor, partial curve, poor fit]. For `O=C(O)Cc1cccc(OCCCN(Cc2cccc(C(F)(F)F)c2Cl)CC(c2ccccc2)c2ccccc2)c1`, the Potency was inconclusive: 39.8 µM [inhibitor, single point]. `Nc1c(C(=O)Nc2cccc(C(=O)O)c2)sc2nc3c(cc12)CCCC3` was tested, and the Potency was “inactive”. For `Cc1ccc(C)n1-c1ccc(-n2cnnn2)cc1`, the Potency was inconclusive: 100 µM [inhibitor, single point]. For `Cn1nnnc1SCCCNCc1cc(Cl)ccc1OCc1ccccc1`, the Potency was “inactive”. For `O=C(c1ccc2nc(-c3ccco3)c(-c3ccco3)nc2c1)N1CCN(c2ncccn2)CC1`, the Potency was inconclusive: 79.4 µM [inhibitor, partial curve, poor fit]. `O=C(Nc1scc(-c2ccc(F)cc2)c1C(=O)O)c1ccco1` was tested, and the Potency was “inactive”. In the case of `CC1CC(=O)c2c(cc3c(-c4c(O)cc(O)c5c(O)c6c(cc45)OC(C)CC6=O)c(O)cc(O)c3c2O)O1` (configuration not stated), the Potency is reported as inconclusive: 14.1 µM [inhibitor, full curve, poor fit]. `Cc1nc(SCC(=O)NCc2ccco2)[nH]c(=O)c1C` was tested, and the Potency was “inactive”. With `CC(=O)Nc1ccc(NC(=O)CSc2nc(N)c(NC(=O)c3ccccc3F)c(=O)[nH]2)cc1` the Potency was inconclusive: 50.1 µM [inhibitor, partial curve, poor fit]. For `CCn1ncc(CN2CCC(C(=O)Nc3cccc(-c4cccc(F)c4)c3)CC2)c1C`, the Potency was inconclusive: 89.1 µM [inhibitor, partial curve, poor fit]. For `N[C@@H](Cc1cc(I)c(Oc2ccc(O)cc2)c(I)c1)C(=O)O`, the activity, negative = inhibition was inactive: 2.28% [at 19.4 µM]. `O=C(CSc1oc(-c2ccco2)nc1S(=O)(=O)c1ccc(Br)cc1)c1ccc(Cl)cc1` was tested, and the Potency was inconclusive: 89.1 µM [inhibitor, single point]. For `CN(C)C(=O)CSc1ncnc2scc(-c3ccccc3)c12`, the Potency was “inactive”. For `COc1ccccc1-c1nnc(SCC(=O)Nc2ccc(N3CCOCC3)cc2)n1N`, the Potency was inconclusive: 89.1 µM [inhibitor, single point]. `Cc1cccc(NC(=O)CCS(=O)(=O)c2cc(Br)cc3c2N(C(=O)C2CC2)CC3)c1C` was tested, and the Potency was inconclusive: 100 µM [inhibitor, single point]. `O=c1cc(-c2ccc(O)c(O)c2)oc2c1ccc1ccccc12` was tested, and the Potency was active: 35.5 µM. For `Cc1ccc(-c2ccc(/C=C3/NC(=O)NC3=O)o2)cc1[N+](=O)[O-]`, the Potency was inconclusive: 79.4 µM [inhibitor, partial curve]. With `COc1ccccc1C(=O)NNC(=O)c1ccc2ccccc2c1` the Potency was active: 89.1 µM. In the case of `Cn1c(SCc2ccc(Cl)cc2)nnc1-c1ccc(NC(=O)CCc2ccccc2)cc1`, the Potency is reported as “inactive”. In the case of `Cc1cc(C)cc(NC(=O)NCC2CCN(Cc3cc(C)ccc3C)CC2)c1`, the Potency is reported as inconclusive: 89.1 µM [inhibitor, partial curve, poor fit]. For `CC(C)=CC(=O)OCC(=O)Nc1ncc(Cl)c(C)c1Cl`, the Potency was inconclusive: 89.1 µM [inhibitor, partial curve, poor fit]. With `O=C(Nc1cccc(F)c1)N1CCC2(CC1)CCN(S(=O)(=O)c1ccccc1)CC2` the Potency was “inactive”. `O=C(Nc1ccc2c(c1)OCCO2)c1coc2ccccc2c1=O` was tested, and the Potency was “inactive”. `CCNc1nc(NCC)n2c(SCC(=O)Nc3ccc(NC(C)=O)cc3)nnc2n1` was tested, and the Potency was inconclusive: 89.1 µM [inhibitor, single point]. `Cc1ccc(/C=C2/SC(=S)N(c3ccc(S(=O)(=O)Nc4nccs4)cc3)C2=O)cc1` was tested, and the Potency was inconclusive: 89.1 µM [inhibitor, single point]. For `CN(C)CCn1nnnc1SCC1=C(C(=O)O)N2C(=O)[C@@H](NC(=O)Cc3csc(N)n3)[C@H]2SC1`, the Potency was active: 50.1 µM. For `COc1ccc(NC(=O)c2ccc(-c3cccc(Cl)c3C)o2)cc1`, the Potency was inconclusive: 112 µM [inhibitor, partial curve, poor fit]. With `O=C(COC(=O)C1CCCCC1C(=O)N1CCc2ccccc21)NCc1ccco1` (configuration not stated) the Potency was inconclusive: 89.1 µM [inhibitor, single point]. In the case of `COc1cccc(NS(=O)(=O)c2ccc3[nH]cc(C(=O)N(C)Cc4ccco4)c(=O)c3c2)c1`, the Potency is reported as inconclusive: 79.4 µM [inhibitor, partial curve, poor fit]. `Fc1ccc(/C=C/c2ccc3ccccc3n2)cc1` was tested, and the Potency was inconclusive: 89.1 µM [inhibitor, partial curve]. `O=C(CSc1nnc(SCc2ccccc2)s1)N/N=C/C=C\c1ccco1` was tested, and the Potency was active: 28.2 µM. In the case of `CCCCCCCCN1[C@@H](CC(=O)O)c2ccc(/C=C/C(=O)O)cc2S1(=O)=O`, the Potency is reported as inconclusive: 50.1 µM [inhibitor, partial curve]. For `COc1ccccc1/C=C/C=c1\sc2nc(=O)c(Cc3ccccc3)nn2c1=O`, the Potency was active: 35.5 µM. With `Fc1ccc(CNc2ccc(N3CCN(Cc4ccccc4)CC3)cc2)cc1` the Potency was “inactive”. For `O=C(c1cccc(S(=O)(=O)N2CCc3ccccc32)c1)N1CCCC(C(F)(F)F)C1` (configuration not stated), the Potency was “inactive”. For `Cc1ccc(Cn2c(=N)c(C(=O)NCc3ccco3)cc3c(=O)n4ccccc4nc32)cc1`, the Potency was inconclusive: 79.4 µM [inhibitor, partial curve, poor fit]. `COc1cccc(C(=O)c2cn(CC(=O)Nc3cccc(Cl)c3C)c3nc(C)ccc3c2=O)c1` was tested, and the Potency was “inactive”. For `S=c1[nH]nc(-c2cc(-c3ccccc3)n[nH]2)n1/N=C/c1cccc(Cl)c1`, the Potency was inconclusive: 89.1 µM [inhibitor, single point]. In the case of `Cc1ccc(C2=NN(C(=O)CCC(=O)O)C(c3cn(-c4ccccc4)nc3-c3ccc(C)cc3)C2)cc1` (configuration not stated), the Potency is reported as “inactive”. For `COc1ccc(-n2c(C)c([N+](=O)[O-])c3ccc(O)c(CN4CCCCC4)c32)cc1`, the Potency was “inactive”. `O=C(NC(=S)Nc1ccc(NC(=O)c2cccs2)cc1)c1cc2ccccc2o1` was tested, and the Potency was “inactive”. For `Cc1occc1C(=O)NCc1cccc(CNC(=O)c2ccoc2C)c1`, the Potency was active: 31.6 µM.
